# Article PMC6403371, “Local unfolding of the HSP27 monomer regulates chaperone activity” (Nature Communications, 2019)
# B1: cHSP27 (α-crystallin domain of HSP27, […]) (domain or fragment)
# chain: not shown
# modifications: intermolecular disulphide bond at C137 in the oxidised state
# notes: HSP27 (HSPB1), human, […]; the glycine left after TEV cleavage is G84 of HSP27; Studied oxidised (no reducing agent) and reduced (250 μM DTT or 5 mM BME); also called ACD; WT cHSP27; source: E. coli, purified (Ni2+ column, TEV cleavage, reverse Ni2+, SEC); not shown: His6, N-terminal, cleaved
# Target: the molecule itself
# Test: 15N NMR relaxation (rotational correlation time); 1 mM oxidised cHSP27 in NMR buffer, 25 °C, 11.7 and 14.1 T; axially symmetric diffusion tensor, ModelFree
protein,measurement,value
B1,stoichiometry N,2
